Experimental data reported in PubChem BioAssay AID485281 (National Center for Advancing Translational Sciences (NCATS), 2010).
Values joined by “and” are separate entries in the source; they are usually repeats but may differ in a detail not shown here. Equal values may be shown once. Screen size: about 350,000 compounds; about 260 (0.074%) were called active. The inconclusive results got no clear call from the source; some entries with a clear call stand among them for comparison. Calls come from the whole dose curve; as a rule, active = well fitted inhibition curve with a large enough effect; inconclusive = small, poorly fitted or top-dose-only effect; inactive = no such curve, though single readings can be large or run the other way. A potency beside an inconclusive call is a rough fit, not a confirmed value.

What follows are compounds tested against Ferritin light chain (Equus caballus) (UniProt P02791) (assay: qHTS Assay for Identification of Novel General Anesthetics). Conditions: apoferritin/1-aminoanthracene competitive binding, fluorescence; activity change, negative = displacement: at 77.5 µM (top of the series).
Chain of UniProt P02791 (P02791 whole entry, looked up): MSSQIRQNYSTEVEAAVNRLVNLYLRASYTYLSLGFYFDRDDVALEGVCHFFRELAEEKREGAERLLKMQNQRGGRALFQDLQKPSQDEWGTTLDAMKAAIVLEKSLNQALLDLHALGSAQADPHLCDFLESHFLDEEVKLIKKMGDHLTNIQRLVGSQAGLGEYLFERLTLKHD
Outline: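 In PBS, apoferritin at 10 uM is loaded with 1-AMA from a 50% saturated solution. After 10 min of compound exposure at ambient temperature, reduced 535 nm fluorescence indicates probe displacement.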
% is set by controls: 0 for no effect and ±100 for the full control effect; potency is the fitted concentration of half-maximal effect; tags give direction and shape of the fitted curve.
Note: nearly all actives have a fitted effect of over 20% in size.

Potency, inconclusive:
COc1ccc(CCNC(=O)c2ccc3nc(Cc4ccccc4)oc3c2)cc1OC 10 µM [inhibitor, full curve]
NC(=O)C12CCCC(Br)(CCC1)C2 22.4 µM [inhibitor, single point]
CCN(CC)C(=S)SCC(=O)c1ccc(Br)cc1 12.6 µM [inhibitor, partial curve]
O=S(=O)(NCCN1CCOCC1)c1cc(Cl)c(Cl)cc1Cl 35.5 µM [inhibitor, single point]
Cc1ccc(S(=O)(=O)N(CC(=O)N=Nc2c(O)[nH]c3ccccc23)c2cccc(C)c2)cc1 15.8 µM [inhibitor, partial curve]
COc1ccc([N+](=O)[O-])cc1NC(=O)C(C)OC(=O)c1cccnc1Cl (configuration not stated) 35.5 µM [inhibitor, single point]
Nc1n[nH]c(N)c1N=Nc1ccc2c(c1)OCO2 35.5 µM [inhibitor, partial curve]
CCc1ccc(OC(=O)Nc2ccccc2)cc1 15.8 µM [inhibitor, partial curve]
Cc1ccc(C(=O)CSc2ccccn2)cc1 31.6 µM [inhibitor, partial curve]
Cc1ccc(NC2=C(NC(=O)c3ccccc3)C(=O)c3ccccc3C2=O)cc1Cl 11.2 µM [inhibitor, full curve, poor fit]
COc1ccc(-n2cc(C(=O)N(C)c3cc(C)ccc3OC)c3ccccc3c2=O)cc1 31.6 µM [inhibitor, single point]
CN(C)c1ccc(N/C=C/C(=O)c2ccco2)cc1 14.1 µM [inhibitor, partial curve]
Cc1nn(Cc2noc(C(=O)NCc3cccc(F)c3)n2)c(C)c1Br 22.4 µM [inhibitor, partial curve]
Cc1ccc(/C=N/Nc2nc(C(C)(C)C)cs2)o1 28.2 µM [inhibitor, single point]
CCOc1ccc(NS(=O)(=O)c2ccc3[nH]cc(C(=O)NCCOC)c(=O)c3c2)cc1 25.1 µM [inhibitor, single point] and 39.8 µM [inhibitor, single point]
CCOC(=O)C1=C(O)/C(=C/c2ccc(-c3ccccc3C(=O)O)o2)SC1=Nc1ccc(C)cc1 25.1 µM [inhibitor, partial curve]
COc1cc(Cl)ccc1OCc1cc(C(=O)N2CCCCCC2)no1 25.1 µM [inhibitor, partial curve]
C[C@@H](NC(=O)c1nc[nH]c1C(=O)NCC(=O)OC(C)(C)C)c1ccccc1 39.8 µM [inhibitor, single point]
C[n+]1c2n(c3ccccc31)N=C(c1ccc(-c3ccccc3)cc1)CS2 17.8 µM [inhibitor, partial curve]
CCCn1nnc(NC(=O)c2ccc(Cl)cc2Cl)n1 31.6 µM [inhibitor, partial curve]
NNC(=O)c1cc2ccccc2[nH]1 39.8 µM [inhibitor, partial curve]
Cc1sc(-c2ccncc2)nc1OC(=O)c1ccc(Cl)cc1 35.5 µM [inhibitor, partial curve]
COc1ccc(-c2nc(SC)n(S(=O)(=O)c3ccccc3)n2)cc1 25.1 µM [inhibitor, partial curve, poor fit]
Cc1ccc(NC(=O)c2ccccc2)cc1OC(=O)c1ccccc1 35.5 µM [inhibitor, partial curve]
Cc1ccc(NC(=O)N/C=C/c2ccco2)cc1C 25.1 µM [inhibitor, partial curve]
COc1ccc2c(COC(=O)c3cccc(S(=O)(=O)NCC(C)C)c3)cc(=O)oc2c1 39.8 µM [inhibitor, partial curve]
O=C(CNc1ccccc1)N/N=C/c1cc([N+](=O)[O-])ccc1N1CCCC1 6.31 µM [inhibitor, partial curve]
OC(COc1ccc2c(c1)OCO2)CN1CCc2ccccc2C1 (configuration not stated) 22.4 µM [inhibitor, partial curve]
COCCNC(=O)/C(C#N)=C/c1cccc(OCc2ccccc2)c1 35.5 µM [inhibitor, single point]
Cc1cccc(OCCn2nnc3ccccc32)c1C 14.1 µM [inhibitor, partial curve]
O=[N+]([O-])c1ccccc1Oc1cnc2ccccc2n1 15.8 µM [inhibitor, partial curve]
Cc1ccc(NC(=S)N(CCCN2CCCC(C)C2)Cc2ccco2)cc1C (configuration not stated) 28.2 µM [inhibitor, single point]
O=C(CCC1N=C2c3ccccc3N=C(SCc3ccccc3Cl)N2C1=O)NCCc1ccccc1 (configuration not stated) 10 µM [inhibitor, single point]
CCCc1nc2ccccc2c(=O)n1/N=C/c1ccc(O)cc1O 39.8 µM [inhibitor, single point]

Activity change, negative = displacement, inactive:
CCOC(=O)c1ccc(Cl)c(NC(=O)c2ccc(-c3ccccc3)cc2)c1 -6.66%
COCCNS(=O)(=O)c1ccc2c(c1)C(=NO)c1cc(S(=O)(=O)NCCOC)ccc1-2 -5.74%
C/C(=N\NC(=O)c1cc(O)cc(O)c1)c1ccc(NC(=O)Cc2ccccc2)cc1 -15%
O=C(/C=C/c1ccccc1O)c1ccco1 -20.5%
COc1ccc(OCC(=O)N(Cc2cccc(OC)c2)C2CCS(=O)(=O)C2)cc1 (configuration not stated) -8.29%
COc1cc(OC)c(NC(=O)c2cc(C(C)=O)n3ccccc23)cc1Cl 2.68%
CC1=C(c2ccc(C)cc2)S(=O)(=O)N(Cc2ccc(C(=O)Nc3ccccc3C)cc2)C1=O -8.56%
COc1ccc(Cl)cc1-n1c(=S)sc2c(=O)[nH]c(SCC(=O)NCCC(C)C)nc21 -9.23%
